In US20210230266A1 (SINGAPORE HEALTH SERVICES PTE, published 2021):

Assays:
[1] = target: T1, Mouse IL-11 (mouse, UniProt P47873 22-199, limits assumed); test: ELISA
T1 construct: also called murine IL-11; recombinant murine IL-11
T1 sequence (looked up): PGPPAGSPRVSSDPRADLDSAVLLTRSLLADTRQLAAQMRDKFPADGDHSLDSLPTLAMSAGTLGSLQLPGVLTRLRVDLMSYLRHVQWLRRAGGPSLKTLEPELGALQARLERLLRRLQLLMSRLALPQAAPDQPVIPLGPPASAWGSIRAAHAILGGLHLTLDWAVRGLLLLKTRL
Procedure: (§1) The soluble scFv were produced by recombinant expression in E. coli, and analysed for their ability to bind to human IL-11 and murine IL-11 by ELISA. Briefly, the respective antigen was coated to wells of an ELISA plate, the cell culture supernatant containing the respective scFv was added at a 1:2 dilution, and binding was detected.

[2] = target: T2, Human IL-11 (human, UniProt P20809 22-199); test: ELISA
T2 construct: Recombinant human IL-11 (GenScript Cat. No. Z03108-1) or IL-11 secreted by human cells; the mature form is said to have 178 residues; also called recombinant human IL-11; endogenously produced IL-11
T2 sequence: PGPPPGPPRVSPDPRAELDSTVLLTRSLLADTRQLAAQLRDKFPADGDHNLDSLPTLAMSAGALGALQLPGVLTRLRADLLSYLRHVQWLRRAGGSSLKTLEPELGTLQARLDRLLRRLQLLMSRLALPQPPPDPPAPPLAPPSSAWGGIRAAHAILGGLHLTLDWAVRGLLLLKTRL
Procedure: as §1

mIL11 - average signal [1]: 0.323 | hIL11 - average signal [2]: 0.373
B1: YU112-E08 (antibody)
chain: VTLKESGGGVVQPGRSLRLSCAASGFTFSSYGMHWVRQAPGKGLEWVAVISYDGSNKYYADSVKGRFTISRDNSKNTLYLQMNSLRAEDTAVYYCAKGGKSYYGFDYWGQGTLVTVSSGSASAPKLEEGEFSEARV[about 100 residues left out here]TWTFGQGTKVEIK
